Source: PubChem BioAssay AID488969 (Vanderbilt High Throughput Screening Facility, 2010)
The full ranking holds about 110,000 compounds; the median of “z-score” is about -0.1, and the highest 2% start at about 2. The list shows a part of the results.

The molecules below were run against Metabotropic glutamate receptor 8 (Rattus norvegicus) (UniProt P70579) (assay: mGluR8 Gi/Go-coupled signaling modulation – cell-based, rat, thallium flux, HTS, primary screen (AID 488969)). Settings: HEK293 rat mGluR8, GIRK (G protein-gated inwardly rectifying potassium channel) thallium flux, FluoZin2; at 10 µM; stronger effect = higher value; submaximal glutamate (EC20) added with thallium.
UniProt P70579, sequence (P70579 whole entry, looked up): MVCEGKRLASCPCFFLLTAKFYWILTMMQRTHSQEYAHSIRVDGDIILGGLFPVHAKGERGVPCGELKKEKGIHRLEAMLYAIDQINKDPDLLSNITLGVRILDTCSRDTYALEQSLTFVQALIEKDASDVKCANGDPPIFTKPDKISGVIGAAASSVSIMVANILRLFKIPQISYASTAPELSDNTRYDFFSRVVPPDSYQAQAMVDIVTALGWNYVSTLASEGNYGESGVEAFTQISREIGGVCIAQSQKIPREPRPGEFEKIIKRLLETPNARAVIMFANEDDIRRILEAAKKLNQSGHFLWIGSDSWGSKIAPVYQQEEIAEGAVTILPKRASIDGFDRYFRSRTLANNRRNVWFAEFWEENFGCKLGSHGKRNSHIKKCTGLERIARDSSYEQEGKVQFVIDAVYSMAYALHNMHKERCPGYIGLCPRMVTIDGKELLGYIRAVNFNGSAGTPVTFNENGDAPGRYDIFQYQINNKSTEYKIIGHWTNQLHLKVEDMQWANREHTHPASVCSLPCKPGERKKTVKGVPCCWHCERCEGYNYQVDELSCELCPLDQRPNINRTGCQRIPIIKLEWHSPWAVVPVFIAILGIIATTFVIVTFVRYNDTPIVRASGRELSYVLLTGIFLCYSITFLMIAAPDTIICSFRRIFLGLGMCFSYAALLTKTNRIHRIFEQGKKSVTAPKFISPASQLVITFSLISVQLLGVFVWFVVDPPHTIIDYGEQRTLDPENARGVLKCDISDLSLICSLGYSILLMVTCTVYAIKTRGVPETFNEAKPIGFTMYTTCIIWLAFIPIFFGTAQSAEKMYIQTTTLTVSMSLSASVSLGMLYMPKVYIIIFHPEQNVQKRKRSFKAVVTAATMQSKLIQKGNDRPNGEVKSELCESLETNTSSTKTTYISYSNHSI
Work on `O=C(Nc1ccc(-c2nnc(-c3ccccc3)o2)cc1)C(F)(F)F` yielded a z-score of 0.955. In the case of `O=C1OC(Nc2ncccn2)c2ccccc21` (stereo not given), the z-score is reported as -0.0312. `CSc1nnc(-c2cc(-c3ccc(C)cc3)nc3ccccc23)o1` was tested, and the z-score was -0.0721. Molecule `CCOC(=O)N1CCC(NC(=O)CN2C(=O)CSc3nc(C)cc(C)c32)CC1` has a z-score of 1.13. Molecule `CCOc1ccc(OCc2ccc(C(=O)N3N=C(C(F)F)CC3(O)C(F)F)o2)cc1` (stereo not given) has a z-score of 0.47. Work on `CCc1sc(-c2c(C#N)c(N)nc3c2CCCCCC3)cc1[N+](=O)[O-]` yielded a z-score of -0.138. `COc1ccc(-c2c(C#N)c(SCC(N)=O)nc3c2CCCC3)cc1` showed a z-score of -0.089. Molecule `Cc1ccc(Cl)cc1N1CCN(C(=O)CN2C(=O)c3cccc4cccc2c34)CC1` has a z-score of 1.97. Work on `Cc1ccc(NN=Nc2nc3c([nH]2)c(=O)n(C)c(=O)n3C)cc1` yielded a z-score of 0.267. `O=c1[nH]nc(Cc2ccc(-c3cccc(Cl)c3)o2)c2ccccc12` was tested, and the z-score was -0.0601. `Oc1c(Br)cc(C2N=C(c3ccccc3)NO2)cc1Br` (stereo not given) was tested, and the z-score was -0.338. In the case of `CCOC(=O)c1c(C)[nH]c(C(=O)COC(=O)c2ccc(N3CCCC3=O)cc2)c1C`, the z-score is reported as 0.0485. For `Cn1cccc1/C=C1\SC(=S)N(NC(=O)c2cccc(Cl)c2)C1=O`, the z-score was -0.218. For `CC(Cc1ccccc1)NC(=O)c1ccc([N+](=O)[O-])cc1` (stereo not given), the z-score was -0.0984. `C/C(=N\NC(=O)c1nn(C)c(C)c1Br)c1ccc(NC(=O)c2ccccc2F)cc1` gave a z-score of -0.124. Work on `CCN(CC)C(=O)CN1C(=O)C2(OCC(C)(c3ccccc3)CO2)c2ccccc21` (stereo not given) yielded a z-score of -0.553. Work on `CC(=O)Nc1ccc(C(=O)N/N=C/c2cccnc2)cc1` yielded a z-score of -0.709. In the case of `Cc1cccc(N2CCN(C(=O)c3ccc(N4CCCC4=O)cc3)CC2C)c1` (stereo not given), the z-score is reported as -0.0519. `Cc1cc(Cl)ccc1OC(C)c1nnc(N)s1` (stereo not given) gave a z-score of 1.98. Molecule `CCCNC(=S)Nc1ccc(Cl)cc1C` has a z-score of -0.142. Molecule `CN(C)c1nc(OCCNC(=O)COc2ccc(Cl)cc2Cl)nc(N2CCOCC2)n1` has a z-score of -0.541. `CCc1ccccc1NC(=O)CSc1nnc(Cn2nnc3ccccc32)n1C` showed a z-score of 0.18. `Cc1cc(C)c(S(=O)(=O)ON2C(=O)c3ccccc3C2=O)cc1C` was tested, and the z-score was 0.253. `COc1ccc(CN(C(=O)c2cnccn2)C(C(=O)Nc2ccc(F)cc2)c2ccccc2)cc1` (stereo not given) gave a z-score of -0.407. In the case of `COc1ccc(-n2cnc3cc(N)ccc32)cc1`, the z-score is reported as -0.0506. Work on `COc1cc(C(C#N)N2N=C(c3ccccc3)CC2c2ccccc2)ccc1O` (stereo not given) yielded a z-score of -0.262. `CCOC(=O)c1ccccc1NC(=O)c1cn(-c2ccc(OC)cc2)c(=O)c2ccccc12` gave a z-score of -0.291. For `COc1ccccc1CNC(=O)COC(=O)Cc1c(Cl)cccc1Cl`, the z-score was 0.27. `COc1ccc(C2OC(=O)c3ccccc3S2)cc1` (stereo not given) showed a z-score of -0.435. `O=C(COc1ccc(F)cc1)NNC(=O)c1cc2ccccc2oc1=O` was tested, and the z-score was -0.0129.
